± gives the standard deviation of the averaged measurements. Some of the results follow.
Each sequence was assayed on PfAP2-EXP AP2 domain (GST-tagged) (assay: gcPBM binding intensity (ln(normalized median fluorescence intensity)); higher = stronger DNA binding).
Summary of the method: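 An Agilent 4 × 180k array carrying primer-extended double-stranded 36-bp intergenic genomic probes and negative controls received GST-tagged P. falciparum DNA-binding domains expressed in E. coli, about 25 μg on average, for 1 h. The binding buffer contained 1× PBS, 1% milk, 0.2 mg/ml BSA, 0.5% salmon testes DNA and 0.03% Triton X-100. Binding intensity is the top Masliner-normalised natural-log median intensity across replicate spots of either probe orientation, read after Alexa488 anti-GST antibody staining and a 488 nm scan.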

Sequence	gcPBM binding intensity (ln)
CCAAAATTTATAAATTGTACATATTTTTAAATTCTT [XGTACX_site833]	8.4 ± 0.53
ATAAAAGAATTAAATAATCAAAATGATTATTTTATA [CACACA_negctrl_site466]	7.76 ± 0.42
GATAAATAATAATAAGGTACACATAAAATATTCCTT [XGTACX_site2963]	8.29 ± 0.36
AATTATATACATAAGTGTACATAATATATAAACATA [XGTACX_site793]	8.31 ± 0.28
TTTTCAATTAATAATACACACATGTATTTATTATTA [CACACA_site5774]	8.3 ± 0.35
TGTTGTAAATTAAAGACATGCACGTGAGAAAATATA [TGCATGCA_site285]	9.42 ± 0.26
TATATATATTTTATATGTACGTATGGAACAATATGA [XGTACX_site8167]	8.71 ± 0.53
TTTTCTATGCTAAACACACTCATTGTTACAAGTTTT [CACACA_site5531]	8.72 ± 0.4
TTATTTATTTTTTATACACACAATTATCATTTTAAG [CACACA_site22]	8.47 ± 0.45
TTATTTTCATATAGGTGTACATAAAAATATTCTTAT [XGTACX_site8861]	8.71 ± 0.25
AAATTAAGTATATATTGTACACATAATATGATTGTA [XGTACX_site3083]	8.26 ± 0.28
TATACTAAGAAGTATTTACACACCAACAAGGCGAAA [CACACA_site8963]	8.53 ± 0.52
TAAGTTTATTGAAATTGTACAAACATAAATGTAAAA [XGTACX_site162]	8.6 ± 0.4
TTATATTTTTTTTTTTCACACACATTTATATTGTAT [CACACA_site9025]	8.56 ± 0.54
TATCATAAAAAATATACACACAAAGGATATATATAT [CACACA_site1571]	9.3 ± 0.14
ATGTTCATTATATGCACACATATATATAAATGTAAT [CACACA_site2908]	8.38 ± 0.23
TATTTGTTTGTTCGGGTGCTTACATATATTCTTATA [GTGCAC_site9972]	9.06 ± 0.59
TGTGCCTATAAATTAACACACAGAAATATATAGAGA [CACACA_site818]	8.62 ± 0.36
TTATTCTGACAGAATTGTACTAATGTCTTTAAAAAA [XGTACX_site1256]	8.15 ± 0.39
TTAATTAGAAATCATACACACATATAAATAAATATA [CACACA_site6225]	8.36 ± 0.38
AAGCACAAAAAATACACACACAAAAAATAAAAAAAG [CACACA_site1840]	8.67 ± 0.52
GAGAAATGGGGACACACACACATATTATATATATAT [CACACA_site4943]	9.71 ± 0.2
TATATATATCTGTACACACACACATATAAATAAATA [CACACA_site4405]	8.64 ± 0.28
ATATAAATATATGTATGTACGCATGTATGTATCTAT [XGTACX_site3290]	8.645 ± 0.049
TATATGCATAATAACTGTACACAAATTGGGGTTGAT [XGTACX_site459]	9.16 ± 0.59
